From the supplement of paper PMC3334620
Over roughly 33,000 sequences, “E-score (-0.5 to 0.5)” has its median near -0.013; the highest 2% begin near 0.3. Some of the results follow.

What follows are sequences tested against T1, Msn1 (UniProt P22148) (assay: PBM E-score (8-mer binding enrichment) (E-score (-0.5 to 0.5)); higher = stronger / more preferred TF binding; most listed sequences are background and not binding sites). Conditions: protein concentration: 200 nM; construct: GST-full length.
T1 sequence: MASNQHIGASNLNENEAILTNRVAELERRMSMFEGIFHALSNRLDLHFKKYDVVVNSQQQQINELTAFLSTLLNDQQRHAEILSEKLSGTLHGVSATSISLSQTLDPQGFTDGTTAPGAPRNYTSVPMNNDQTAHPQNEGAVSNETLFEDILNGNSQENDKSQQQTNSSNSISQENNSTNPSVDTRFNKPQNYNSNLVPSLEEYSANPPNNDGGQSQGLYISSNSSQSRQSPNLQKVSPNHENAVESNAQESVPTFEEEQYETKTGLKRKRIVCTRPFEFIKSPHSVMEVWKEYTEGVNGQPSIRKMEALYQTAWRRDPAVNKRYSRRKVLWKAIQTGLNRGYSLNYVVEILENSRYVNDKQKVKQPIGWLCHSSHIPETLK
Summary of the method: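 Detection of bound protein used fluorescent anti-GST, with scans normalised by masliner. The proteins were GST-tagged yeast transcription factors applied at about 100-200 nM to universal all-10-mer Agilent arrays made double-stranded by primer extension. Each ungapped eight-base word, pooled with its reverse complement, was scored with an E-score from the Universal PBM Analysis Suite.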

Sequence	PBM E-score
CCTGAACA	-0.00749
ACGGTGGA	-0.202
CAAAGTAG	-0.0366
AATCTCCA	-0.0286
CGGGGGAC	-0.264
ACTATAGG	-0.121
CCCTGAGC	-0.142
ACTTCACC	0.119
AGCTTATA	-0.112
CATTGGAA	0.0709
ACCATCAG	-0.168
CGTCTGAG	-0.0146
ATAATTGC	-0.0717
CAACGTAA	-0.142
CGATAAGA	0.133
AGAGTTGG	-0.0301
GGTGGCAA	-0.068
CATGTCTC	0.343

Sequence	PBM E-score
CAAGGTAC	-0.0472
CGTTCATC	0.0608
ATACGTAC	0.0723
ATTACAGA	0.186
AAGAAGTG	-0.0155
ATTGTAGG	0.201
CCCTGGAG	-0.263
AGGGGACA	0.386
CCAAATTC	0.0869
ATGACCCA	-0.0666
CCCATAGC	-0.299
CTATATTA	0.17
CCTACCTC	-0.19
CCCCCGTA	-0.389
GTCGGGAA	0.0732
TACTTCAA	0.16
CTACTGAA	-0.0253
CGGGCAAG	0.0918
